Data taken from PubChem BioAssay (Tox21).
Values joined by “and” are separate entries in the source; they are usually repeats but may differ in a detail not shown here. Equal values may be shown once. The shares of active, inactive and inconclusive entries below differ from those in the screen. Where the call is inconclusive, the potency comes from a doubtful curve fit. Some compounds were tested as several samples or in several runs, with calls that do not always agree. Active and inactive are the calls of the source. Unless noted, calls follow the shape of the dose curve; as a rule, active = well fitted curve in the direction sought with a large enough effect in the repeat runs; inconclusive = weak or mixed curves; inactive = no such curve, though single readings can be large; an effect the other way counts as inactive or inconclusive.

Columns and labels:
[1] = qHTS assay for identifying genotoxic compounds that show differential cytotoxicity against isogenic chicken DT40 cell lines with known DNA damage response pathways - wild type cell line (AID 743012); settings: DT40 wild type chicken cells viability, CellTiter-Glo, 40 h; activity change, negative = cytotoxicity: at 68.4 µM (top of the series) unless noted; also: nearly all actives have a fitted effect of over 60% in size
Outline: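 Wild-type DT40 cells (300/well) exposed to compounds for 40 hours at 37 C/5% CO2. Viability read by CellTiter-Glo luminescence after 30 min at room temperature.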

[2] = qHTS assay for identifying genotoxic compounds that show differential cytotoxicity against isogenic chicken DT40 cell lines with known DNA damage response pathways - Rev3 mutant cell line (AID 743014); settings: chicken DT40 Rev3-/- viability, CellTiter-Glo, 40 h; activity, negative = cytotoxicity: at 68.4 µM (top of the series); also: nearly all actives have a fitted effect of over 55% in size
[3] = qHTS assay to identify small molecule antagonists of the androgen receptor (AR) signaling pathway - cell viability counter screen (AID 743033; also: nearly all actives have a fitted effect of over 45% in size); settings: AR-bla HEK293 viability, CellTiter-Glo luminescence, 16 h; activity change, negative = cytotoxicity: at 58.5 µM (top of the series)
[4] = qHTS assay to identify small molecule antagonists of the thyroid receptor (TR) signaling pathway - cell viability counter screen (AID 743064); settings: GH3.TRE-Luc viability, CellTiter-Fluor, 24 h; activity change, negative = cytotoxic: at 70.3 µM (top of the series) unless noted; also: nearly all actives have a fitted effect of over 50% in size
Outline: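 Rat GH3 pituitary tumor cells stably expressing two TR response elements driving luciferase were plated, rested 4 h, then dosed with library compounds and T3 (1 nM final). After 23.5 h at 37 °C, CellTiter-Fluor was added for 30 min and fluorescence recorded.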

[5] = qHTS assay for identifying genotoxic compounds that show differential cytotoxicity against isogenic chicken DT40 cell lines with known DNA damage response pathways - Rad54/Ku70 mutant cell line (AID 743015); settings: DT40 Rad54/Ku70 mutant viability, CellTiter-Glo, 40 h; activity change, negative = cytotoxicity: at 66.8 µM (top of the series); also: nearly all actives have a fitted effect of over 60% in size
[6] = target: Androgen receptor (Homo sapiens) (UniProt P10275); assay: qHTS assay to identify small molecule antagonists of the androgen receptor (AR) signaling pathway (AID 743035; active = well fitted inhibition curve with a large enough effect in the signal ratio in the repeat runs, not every such curve was filed as active; inconclusive = weak or mixed curves, or effect the other way; inactive = no such curve, though single readings can be large or run the other way; the % refers to the signal ratio); settings: HEK293 AR-UAS-bla, R1881-stimulated, beta-lactamase FRET, 16 h; activity change, negative = inhibition: at 58.5 µM (top of the series) unless noted
Chain of UniProt P10275 (P10275 whole entry, looked up): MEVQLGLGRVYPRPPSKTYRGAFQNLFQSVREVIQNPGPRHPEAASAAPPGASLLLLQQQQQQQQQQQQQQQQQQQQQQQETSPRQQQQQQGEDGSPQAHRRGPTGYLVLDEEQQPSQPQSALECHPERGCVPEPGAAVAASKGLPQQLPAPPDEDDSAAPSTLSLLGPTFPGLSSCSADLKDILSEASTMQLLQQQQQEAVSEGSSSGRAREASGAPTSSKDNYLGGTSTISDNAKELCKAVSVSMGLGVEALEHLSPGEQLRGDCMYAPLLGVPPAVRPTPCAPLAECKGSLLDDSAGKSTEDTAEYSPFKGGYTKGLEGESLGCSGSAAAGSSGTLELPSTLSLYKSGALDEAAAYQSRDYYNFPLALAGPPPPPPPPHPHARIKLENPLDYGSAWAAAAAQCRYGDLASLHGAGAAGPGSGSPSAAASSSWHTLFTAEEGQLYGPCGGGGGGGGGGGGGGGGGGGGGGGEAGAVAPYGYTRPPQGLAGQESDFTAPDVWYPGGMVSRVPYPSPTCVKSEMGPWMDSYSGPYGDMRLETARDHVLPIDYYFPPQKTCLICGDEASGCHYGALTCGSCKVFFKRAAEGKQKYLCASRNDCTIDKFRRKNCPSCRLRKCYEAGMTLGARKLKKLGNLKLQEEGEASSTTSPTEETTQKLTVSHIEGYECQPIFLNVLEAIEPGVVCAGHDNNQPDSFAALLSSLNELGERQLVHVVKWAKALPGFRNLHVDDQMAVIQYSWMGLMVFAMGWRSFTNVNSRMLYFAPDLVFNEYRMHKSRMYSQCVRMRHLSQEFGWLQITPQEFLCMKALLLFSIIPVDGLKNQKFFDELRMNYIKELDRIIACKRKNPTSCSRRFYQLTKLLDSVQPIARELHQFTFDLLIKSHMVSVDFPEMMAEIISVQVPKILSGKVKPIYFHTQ
Outline: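 HEK293 cells stably carrying UAS-beta-lactamase reporter, 2,000/well, given compounds plus R1881 agonist and incubated 16 h at 37C. LiveBLAzer B/G FRET substrate then added for 2 h at room temperature before fluorescence reading.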
% is scaled to controls: 0 for no effect and ±100 for the full control effect; potency is read from the fitted curve at half-maximal effect; tags tell the direction and shape of the fitted curve.

Compound	Potency [1]	Potency [2]	Potency [3]	Potency [4]	Potency [5]	Potency [6]	activity, negative = cytotoxicity [2]	activity change, negative = cytotoxicity [5]
Nc1ccc(S(N)(=O)=O)cc1	inconclusive: 68.9 µM [cytotoxic, single point]	inconclusive: 33.5 µM [rising, partial curve, poor fit]	inconclusive: 55.2 µM [cytotoxic, single point]	inactive	–	–	–	–
CC(=O)Oc1ccc(C2(c3ccc(OC(C)=O)cc3)Oc3ccccc3NC2=O)cc1	inconclusive: 33.5 µM [cytotoxic, single point]	inconclusive: 33.5 µM [cytotoxic, single point]	–	inconclusive: 8.41 µM [cytotoxic, partial curve]	inconclusive: 33.5 µM [cytotoxic, single point]	–	–	–
O=C(CCCN1CC=C(n2c(=O)[nH]c3ccccc32)CC1)c1ccc(F)cc1	active: 29.8 µM	inconclusive: 33.5 µM [cytotoxic]	–	inconclusive: 33.5 µM [cytotoxic, single point]	inconclusive: 33.5 µM [cytotoxic, single point]	–	–	–
CC(C)c1nc(CN(C)C(=O)N[C@H](C(=O)N[C@@H](Cc2ccccc2)C[C@H](O)[C@H](Cc2ccccc2)NC(=O)OCc2cncs2)C(C)C)cs1	inactive and active: 23.7 µM	inconclusive: 33.5 µM [cytotoxic, single point]	–	inconclusive: 26.6 µM [cytotoxic, single point]	inconclusive: 33.5 µM [cytotoxic, single point] and active: 23.7 µM	–	–	–
C#C[C@]1(O)CC[C@H]2[C@@H]3CCC4=Cc5oncc5C[C@]4(C)[C@H]3CC[C@@]21C	inconclusive: 23.7 µM [cytotoxic, partial curve] and active: 9.69 µM	active: 24.3 µM	inactive and active: 38.9 µM	active: 61.1 µM	inconclusive: 33.5 µM [cytotoxic, single point] and active: 13.7 µM	–	–	–
O=C(/C=C/C=C/c1ccc2c(c1)OCO2)N1CCCCC1	inconclusive: 68.7 µM [cytotoxic, single point] and inconclusive: 61.1 µM [cytotoxic, partial curve]	active: 61.3 µM and inconclusive: 61.1 µM [cytotoxic, single point]	–	inactive	inconclusive: 61.1 µM [cytotoxic, partial curve]	–	–	–
NCCc1ccc(O)c(O)c1	inconclusive: 29.8 µM [cytotoxic, single point] and active: 54.6 µM	inconclusive: 33.5 µM [cytotoxic, single point]	–	inconclusive: 37.6 µM [cytotoxic, single point]	inconclusive: 33.5 µM [cytotoxic, single point]	–	–	–
C1CC(COCC2CO2)CCC1COCC1CO1 (configuration not stated)	active: 30.6 µM	active: 6.86 µM	–	inconclusive: 68.6 µM [cytotoxic, single point]	active: 19.3 µM	–	–	–
O=C=Nc1cccc(C(F)(F)F)c1	inconclusive: 68.1 µM [cytotoxic, single point]	inconclusive: 68.1 µM [cytotoxic, single point]	inconclusive: 54.6 µM [cytotoxic, single point]	–	–	active: 48.6 µM	–	–
CCC(C)(C)C(=O)O[C@H]1C[C@@H](C)C=C2C=C[C@H](C)[C@H](CC[C@@H]3C[C@@H](O)CC(=O)O3)[C@H]21	inconclusive: 0.639 µM [cytotoxic]	inconclusive: 0.0569 µM [cytotoxic, full curve]	–	inactive and inconclusive: 68.6 µM [cytotoxic, single point]	inconclusive: 0.902 µM [cytotoxic, full curve]	–	–	–
O=C1NS(=O)(=O)c2ccccc21	inactive	–	–	inconclusive: 51.4 µM [rising, partial curve, poor fit]	–	–	inconclusive: -61.6%	inconclusive: -68.8%
NC(=S)NC(N)=S	active: 61.1 µM	active: 61.1 µM	–	–	active: 68.6 µM	inactive	–	–
CC(C)C[C@H](NC(=O)[C@H](CCc1ccccc1)NC(=O)CN1CCOCC1)C(=O)N[C@@H](Cc1ccccc1)C(=O)N[C@@H](CC(C)C)C(=O)[C@@]1(C)CO1	active: 0.0119 µM	active: 0.0168 µM	inconclusive: 0.169 µM [cytotoxic, full curve]	–	–	–	–	–
CCCCC(CC)CN (configuration not stated)	active: 55.5 µM	active: 62.3 µM	active: 44.5 µM	inconclusive: 55.5 µM [cytotoxic, partial curve, poor fit]	–	inconclusive: 44.5 µM [rising, partial curve]	–	–
